Data on 61 compounds can be found in PubChem BioAssay AID1159614 (National Center for Advancing Translational Sciences (NCATS), 2016).

Hit rate of the full screen: of about 45,000 compounds, about 65 (0.1%) were called active. Calls follow the shape of the dose curve; as a rule, active = well fitted activation curve with a large enough effect; inconclusive = small, poorly fitted or top-dose-only effect; inactive = no such curve, though single readings can be large or run the other way. The list shows a part of the results.
Potency is read from the fitted curve at half-maximal effect.

This test addresses Galactocerebrosidase (Homo sapiens) (UniProt P54803). Description: A Novel Cell-Based Assay to Identify Small Molecules for B -Galactocerebrosidase. Also: nearly all actives have a fitted effect of over 65% in size. As to activation: 0% is about no effect. To be noted: 145M-Twi-hGALC-G270D cells (Twitcher mouse brain line with human GALC G270D), HMU-beta-Gal fluorescence, 48 h; series mostly up to 57.5 µM; activation: at the top concentration. In outline: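 Fluorescence readout: HMU-β-gal cleavage by mutant GALC (0.1 mM final, citrate/phosphate pH 5.2 with 1 mg/mL taurocholate), stopped with carbonate/bicarbonate plus Triton X-100. Cells: murine Twitcher 145M-Twi expressing human G270D GALC; qHTS for activators.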
Sequence of UniProt P54803 (P54803 whole entry, looked up): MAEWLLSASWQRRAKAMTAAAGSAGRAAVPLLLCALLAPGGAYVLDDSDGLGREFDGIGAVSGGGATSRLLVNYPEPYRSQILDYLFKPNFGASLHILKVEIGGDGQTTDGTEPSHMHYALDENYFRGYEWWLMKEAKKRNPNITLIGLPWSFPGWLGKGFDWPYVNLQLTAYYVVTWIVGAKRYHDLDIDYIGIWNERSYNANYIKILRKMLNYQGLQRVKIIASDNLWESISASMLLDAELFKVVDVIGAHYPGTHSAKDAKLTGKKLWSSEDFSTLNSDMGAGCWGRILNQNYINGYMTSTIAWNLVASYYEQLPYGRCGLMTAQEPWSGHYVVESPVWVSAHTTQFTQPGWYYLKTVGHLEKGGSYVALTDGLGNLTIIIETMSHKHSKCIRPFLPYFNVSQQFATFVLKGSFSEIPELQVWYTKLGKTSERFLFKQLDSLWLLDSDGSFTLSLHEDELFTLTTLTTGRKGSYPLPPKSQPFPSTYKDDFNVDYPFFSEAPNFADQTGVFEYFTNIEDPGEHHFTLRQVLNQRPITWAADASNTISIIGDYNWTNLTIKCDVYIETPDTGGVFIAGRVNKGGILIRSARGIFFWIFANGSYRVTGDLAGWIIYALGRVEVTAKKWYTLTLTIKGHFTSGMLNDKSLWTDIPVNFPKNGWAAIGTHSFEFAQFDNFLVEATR
In the case of `COc1cccc(CNC(=O)C(Cc2ccccc2)NS(=O)(=O)c2ccc3c(c2)CCN3C(C)=O)c1` (stereo unspecified), the “activation” value was inactive: -13.2%. Turning to `CCOc1ccccc1CNC(=O)c1ccc2c(c1)N(CC)CCS2`, the “activation” value is inactive: -9%. On to `COc1cc(C(=O)Nc2sc3c(c2C#N)CCCC3)c(Br)c(OC)c1OC`, for which the “activation” value was inactive: 6.87%. Still for that read-out and setting: with `Cc1ccc(NC(=O)CCc2nc(-c3ccccc3F)no2)c(C)c1` the figure was inactive: -19%.

For `CCOc1cc2c(cc1OCC)C(CC(=O)OC)N(C(=O)Nc1cc(C)cc(C)c1)CC2` (stereo unspecified), the “activation” value was inactive: -16.8%.

Turning to `CCOC(=O)C1CCN(S(=O)(=O)c2cc(-c3cc(C)no3)ccc2OC)CC1`, the “activation” value was inactive: -16.6%. Still for that read-out and setting: the result for `O=C(COc1ccccc1)Nc1nnc2n1CCS2` reads inactive: -24.5%. Still for that read-out and setting: the result for `CCOC(=O)c1c(C)[nH]c(C)c1S(=O)(=O)NCC(=O)Nc1cc(Cl)ccc1OC` reads inactive: -4.26%; that for `CC(=O)c1ccc(NC(=O)COc2ccccc2-c2nc(C(C)C)no2)cc1`, inactive: -15.3%. Still for that read-out and setting: with `COc1cc(OC)cc(-c2nc3nc(C)c(CCC(=O)Nc4ccccc4)c(C)n3n2)c1` the figure was inactive: -12.9%. As for `CC(=O)c1ccc(N2CCN(C(=O)Nc3cn(CC(C)C)c(=O)c4ccccc34)CC2)cc1`, the “activation” value is inactive: -17.4%. For the compound `Cc1ccc(NC(=O)C(Cc2ccccc2)NS(=O)(=O)c2ccc3c(c2)oc(=O)n3C)cc1C` (stereo unspecified), the “activation” value is inactive: -16.9%. Regarding `CC(C)(C)C(=O)Cn1c(=O)n(CCCCCC(=O)NCc2ccccc2Cl)c(=O)c2sccc21`, the “activation” value was inactive: -39.7%. In the case of `COc1ccc(C2CC(=O)Nc3cc4c(cc32)OCO4)c(OC)c1` (stereo unspecified), the “activation” value is inactive: -34.6%.

Consider `CCN1CCN(Cc2nc3cc(NC(=O)c4cccc([N+](=O)[O-])c4)ccc3n2CC)CC1`, for which the “activation” value is inactive: -17.2%. Take `CCc1ccc(NC(=O)Cn2c(C(=O)OC)cc3oc(C)cc32)cc1`: the “activation” value is inactive: -6.6%.

For `Cc1ccc(C)c(NC(=O)CSc2nnc(NC(=O)Nc3ccccc3)s2)c1`, the “activation” value was inactive: -9.87%.

Turning to `CCc1ccc(C2CC(=O)c3c([nH]c(C(=O)OC4CCCCCC4)c3C)C2)cc1` (stereo unspecified), the “activation” value is inactive: -23.8%. Turning to `COc1ccc(NC(=O)CN2CCN(C3CCCCC3)C(=O)C2=O)cc1`, the “activation” value is inactive: 0.834%.

Take `CCCCCCC(=O)Nc1cc2nc3c(nc2cc1C)c(=O)n(C)c(=O)n3C`: the “activation” value was inactive: -12.5%. With `Cc1ccc(CCNC(=O)C(C)n2nc(C)c3c(C)n(-c4ccc(C)cc4)nc3c2=O)cc1` (stereo unspecified), the “activation” value was inactive: -41.6%. For `CCOC(=O)N1CCC(NC(=O)c2ccc3c(c2)N(Cc2ccc(F)cc2)C(=O)c2ccccc2S3=O)CC1` (stereo unspecified), the “activation” value was inactive: 2.24%. With `COc1ccc(CCNC(=O)c2nc(SCc3ccc(F)cc3)ncc2Cl)cc1OC`, the “activation” value was inactive: -13.4%. Turning to `Cc1ccccc1OCC(=O)Nc1ccc2[nH]c(=O)sc2c1`, the “activation” value was inactive: 4.27%. Still for that read-out and setting: the result for `CCOc1ccc(CC(=O)NCCc2sc(-c3cccc(F)c3)nc2C)cc1` reads inactive: -5.26%; that for `O=C(NCCS(=O)(=O)N1CCN(c2ccc(F)cc2)CC1)c1ccccc1Br`, inactive: -14%; that for `CCOc1cccc2sc(NC(=O)c3ccc(S(=O)(=O)N4CCCCC4)cc3)nc12`, inactive: -20.4%. Regarding `COc1ccc(NC(=O)c2cc(=O)c3cc(C)cc(C)c3o2)cc1`, the “activation” value was inactive: -6.75%. Same read-out and setting: with `Cc1nc2c(-c3ccccc3)c(C)[nH]n2c(=O)c1Cc1ccc(Br)cc1` the figure was inactive: -25.3%; with `CCOC(=O)c1c(-c2ccc(Br)cc2)csc1NC(=O)c1ccc(C(C)(C)C)cc1`, inactive: 4.58%; with `CC1CCCCN1Cc1c(O)ccc2c(=O)c(-c3ccc(Cl)cc3)coc12` (stereo unspecified), inactive: -8.98%. In the case of `COc1ccc(CNC(=O)C2CCCN(C(=O)c3cnn(-c4ccc(F)cc4)c3-n3cccc3)C2)cc1` (stereo unspecified), the “activation” value is inactive: 1.35%. Still for that read-out and setting: the result for `Cc1ccc(CNC(=O)c2cc(=O)c3cc(C)c(C)cc3o2)cc1` reads inactive: -20.4%; that for `CCCS(=O)(=O)c1nc(S(=O)(=O)c2ccc(C)cc2)c(NCC(C)C)s1`, inactive: -7.74%; that for `CC1CCN(S(=O)(=O)c2ccc3c(ccc(=O)n3CC(=O)NCc3ccccc3)c2)CC1`, inactive: -14.3%. Turning to `Cc1ccc(CCNC(=O)c2oc(=O)c3ccccc3c2-c2ccc(C)cc2)cc1`, the “activation” value was inactive: -2.2%. Turning to `CC(CNc1nc2ccccc2c2nc(-c3ccccc3)nn12)c1ccccc1` (stereo unspecified), the Potency was active: 25.1 µM. As for `CC(=O)Nc1cccc(NC(=O)CSc2cn(CC(=O)N3CCCC3)c3ccccc23)c1`, the “activation” value was inactive: -10.1%.

As to `COc1ccc(NC(=O)c2cc3c(=O)n(C)c4cc(Cl)ccc4c3s2)cc1Cl`, the “activation” value is inactive: -0.559%. As to `Cc1noc2ncnc(N3CCCC(C(=O)Nc4cc(F)ccc4F)C3)c12` (stereo unspecified), the “activation” value is inactive: -12.6%. On the same count and under the same terms, with `CCCCNC(=O)Cn1c(=O)cc(C)c2c(C)nn(-c3cccc(Cl)c3C)c21` the figure was inactive: -2.13%.

For the compound `CCc1ccc(-n2c(=O)c3c(C)c(C(=O)N(C)C)sc3n(CC(=O)Nc3cc(Cl)ccc3C)c2=O)cc1`, the “activation” value was inactive: 11.6%. Consider `COc1ccccc1NC(=O)C1=C(C)Nc2nc(-c3ccco3)nn2C1c1cccc(C)c1` (stereo unspecified), for which the “activation” value was inactive: -15.1%. In the case of `CCOC(=O)c1c(C)c(C(=O)NCc2ccc(Cl)cc2)c(C)n1C`, the “activation” value was inactive: -12.5%. The same measure, in the same setting: with `CCC(=O)Nc1ccc(C)cc1-c1nc2ccccc2n(CC(=O)c2ccc(C)cc2)c1=O` the figure was inactive: -12.5%. With `CC(C)(C)OC(=O)N1CCC(c2c(C(=O)NCc3ccco3)cnn2-c2ccc(F)cc2F)CC1`, the “activation” value is inactive: -0.0203%. Consider `Cc1ccc(Sc2c(C)nn(C(=O)c3ccc(Br)cc3)c2C)cc1`, for which the “activation” value is inactive: -4.2%.

Take `COc1ccc(Nc2ncnc3onc(C)c23)c(OC)c1`: the “activation” value was inactive: -21.3%. In the case of `COc1ccc(Cl)cc1NC(=O)NCCc1c(C)nn(C)c1C`, the “activation” value was inactive: -12.2%.

In the case of `COc1ccc(OC)c(NC(=O)Cn2c(=O)n(Cc3nc(C)no3)c(=O)c3ccccc32)c1`, the “activation” value was inactive: -16.1%. As to `CC(=O)Nc1ccc(NC(=O)c2cc(-c3cccs3)on2)cc1`, the “activation” value is inactive: -2.24%. For `O=C(CSC1=Nc2ccccc2N=C(c2ccc(F)cc2)C1)Nc1ccc(Cl)cc1`, the “activation” value was inactive: -15.1%.

Take `CCc1cccc(C)c1NC(=O)c1ccc2c(c1)CCN2S(=O)(=O)CC`: the “activation” value was inactive: -7.76%. For the compound `COc1ccc(N2CCN(C(=O)C(C)n3c(=O)cc(C(F)(F)F)c4c(C)nn(C)c43)CC2)cc1` (stereo unspecified), the “activation” value is inactive: -8.76%. Regarding `COc1ccccc1CNS(=O)(=O)c1ccc2c(c1)CC(C)N2C(=O)C1CCC1` (stereo unspecified), the “activation” value is inactive: -7.13%. Consider `CC(C)(C)c1nnc(NS(=O)(=O)c2ccc(N)cc2)s1`, for which the “activation” value was inactive: -13.6%.

Take `CC1(C(=O)NC2CCCCC2)Cc2ccccc2C(=O)N1Cc1ccc(F)cc1` (stereo unspecified): the “activation” value is inactive: -0.16%. As to `Cc1ccc(S(=O)(=O)c2nc(-c3ccco3)oc2SCc2ccc(F)cc2)cc1`, the “activation” value was inactive: -13.7%. Still for that read-out and setting: with `Cc1ccc(NC(=O)C2CCCN2S(=O)(=O)c2ccc3c(c2)C(C)(C)C(=O)N3C)cc1` (stereo unspecified) the figure was inactive: -6.2%.

For the compound `CCOc1ccc(NC(=O)c2cc(C)nc3c2c(C)nn3-c2cccc(F)c2)cc1`, the “activation” value is inactive: -12.9%.

With `COc1ccc(-c2cc(C)no2)cc1S(=O)(=O)NC1CCC(C)CC1` (stereo unspecified), the “activation” value is inactive: -22.2%.
